# The campaign covered roughly 52,000 compounds. About 4,300 (8.3%) were called active. Rule as the data show it: active = survival mostly below about 52% (no sharp cut-off); inactive = mostly above about 56%. This is one part of the list.
# System: DeltatarO mutant
# Test: S. aureus survival, RN4220 and DeltatarO strains – OD600, teichoic acid synthesis inhibitors, primary screen (AID 463173)
# Settings: S. aureus RN4220 wild type/DeltatarO growth, OD600, 18 h, active compounds read low, screened at 18.75 µg/mL (by protocol)
row,SMILES,survival
1,Cc1ccc(CNc2nccn(-c3cc(C)cc(C)c3)c2=O)cc1,inactive: 95%
2,CN(C(=O)CSc1nc2ccc(NC(=O)COc3ccccc3)cc2s1)c1ccccc1,inactive: 69%
3,CCC(C)NC(=O)c1sc2ncccc2c1-n1c(C)ccc1C (configuration not stated),inactive: 115%
4,O=C(NCc1ccco1)C(c1ccccc1)N(C(=O)Cc1cccs1)c1cccnc1 (configuration not stated),inactive: 83%
5,CCCc1cc(=O)[nH]c(Nc2cc(Cl)ccc2OC)n1,inactive: 68%
6,CCOc1cc(C2c3c(oc4ccccc4c3=O)C(=O)N2c2ccccn2)ccc1O (configuration not stated),inactive: 109%
7,Cc1cccc(NC(=O)COc2cccc3c(=O)n(C)ccc23)c1C,inactive: 94%
8,CCOC(=O)c1ccc2[nH]c(CSc3nnc(-c4cccc(F)c4)n3C)cc(=O)c2c1,inactive: 91%
9,COc1ccc(C2Oc3nc(SC)nnc3-c3ccccc3N2C(C)=O)cc1 (configuration not stated),inactive: 46%
10,CCc1ccc(-n2nc(CO)c(C(=O)NCc3ccccc3OC)n2)cc1,inactive: 62%
11,COCCCn1c(=O)c2sccc2n2c(CCCC(=O)NCc3ccc(F)cc3)nnc12,inactive: 92%
12,CCn1cc(S(=O)(=O)c2cccc(C)c2)c(=O)c2cc(F)c(N3CCN(c4ccccc4)CC3)cc21,inactive: 84%
13,Cc1ccc2[nH]c3c(=O)n(CC(=O)NCCc4ccc(Cl)cc4)ncc3c2c1,inactive: 88%
14,COc1ccc(NC(=O)C2CCN(c3cnccn3)CC2)cc1Cl,inactive: 73%
15,Cc1cn2c(=O)c(S(=O)(=O)NCc3ccccc3Cl)c(C)nc2s1,inactive: 66%
16,Cc1cc(C)n(CCc2nc3c4ccccc4nc(N4CCN(c5ccc(F)cc5)CC4)n3n2)n1,inactive: 70%
17,CCN(C(=O)CSc1nc2n[nH]c(C)c2c(=N)n1-c1cccc(OC)c1)c1cccc(C)c1,inactive: 94%
18,CCN(C(=O)CSc1nc2ccccc2n1CC(=O)Nc1ccc(F)cc1F)c1ccccc1,inactive: 77%
19,COc1ccc(-c2ccc(CCC(=O)O)n2-c2ccc(Cl)cc2C)cc1,active: 47%
20,CCOc1ccccc1C(=O)NC1CCSC1=O (configuration not stated),inactive: 75%
21,CCOC(=O)c1cccc(NC(=O)CCc2c(C)nn(-c3ccc(N4CCOCC4)nn3)c2C)c1,inactive: 129%
22,CNC(=O)c1c(NC(=O)c2ccc(S(=O)(=O)N3CCCCC3C)cc2)sc2c1CCC2 (configuration not stated),inactive: 55%
23,Cc1ccc(Nc2c(-c3cccnc3)nc3ccc(Br)cn23)cc1,inactive: 80%

row,SMILES,survival
1,CCN(CC)c1ncccc1C(=O)NCc1cccs1,inactive: 81%
2,O=S(=O)(Nc1cccc(-c2ccc(N3CCCC3)nn2)c1)c1ccc(F)c(C(F)(F)F)c1,inactive: 71%
3,COc1ccc(-c2nnc(SCC(=O)N(C)Cc3ccccc3)o2)cc1OC,inactive: 90%
4,Cc1cccc(Oc2ccc3c(c2)Oc2ccccc2NC3=O)c1,inactive: 73%
5,Cc1ccc(NC(=O)Cn2cc(S(=O)(=O)N3CCC(C)CC3)c3ccccc3c2=O)c(Br)c1,inactive: 84%
6,CCCCN(CCCNC(=O)c1c(C)oc2nc[nH]c(=O)c12)Cc1ccccc1,active: 53%
7,COc1ccc(C(=O)NCC(c2cccnc2)N2CCc3ccccc32)cc1OC (configuration not stated),inactive: 57%
8,Cc1cccc(CNC(=O)c2ccc(NC(=O)N3CCSc4ccccc43)cc2)c1,inactive: 66%
9,COc1cccc(N2CCN(C(=O)CN3C(=O)COc4ccc(S(=O)(=O)N5CCC(C)CC5)cc43)CC2)c1,inactive: 77%
10,CCOC(=O)c1cc(-c2ccccc2)n(-c2cccc(C(=O)Nc3cccc(C(C)=O)c3)c2)c1C,inactive: 89%
11,Cc1oc2c(c(C)cc3oc(=O)c(CC(=O)NCc4ccccc4)c(C)c32)c1C,inactive: 87%
12,CCc1cc2cc(C)cc(C)c2nc1SCC(=O)N1CCN(C(=O)c2ccco2)CC1,inactive: 88%
13,COc1ccc(C)cc1-n1nnc(C(=O)Nc2cccc(SC)c2)c1C,inactive: 86%
14,Cc1c(Cl)cccc1NC(=O)Cn1cc2c(n1)CCCC2,inactive: 87%
15,CCc1ccc(-n2nc(C)c3c(C)cc(=O)n(CC(=O)Nc4ccccc4C(=O)OC)c32)cc1,inactive: 67%
16,CSCCC(NS(=O)(=O)c1ccc2c(c1)oc(=O)n2C)C(=O)N1CCN(c2ccc(F)cc2)CC1 (configuration not stated),inactive: 69%
17,CCCCOc1ccc(C(=O)N/C(=C\c2ccc(Br)cc2)C(=O)NC2CCCCC2)cc1,inactive: 58%
18,Cc1nc2c3ccccc3nc(NNC(=O)CCC(=O)N3CCN(c4cccc(C(F)(F)F)c4)CC3)n2n1,inactive: 57%
19,Cc1cccc(-n2ccnc2SCC(=O)Nc2ccc3c(c2)OCO3)c1,inactive: 75%
20,O=C(Nc1cccc(F)c1)C1CCN(c2nc3ccccc3[nH]2)CC1,inactive: 94%
21,CCc1cccc(NC(=O)CCS(=O)(=O)c2ccc3nc(C)sc3c2)c1,inactive: 42%
22,CC1CCc2c(sc(NC(=O)COc3ccccc3C(C)(C)C)c2C#N)C1 (configuration not stated),inactive: 67%
23,Cc1ccc(NC(=O)Cn2c(SCc3ccc(F)cc3)nc3cccnc32)cc1F,inactive: 68%

row,SMILES,survival
1,O=C(NCCCN1CCN(c2ccccc2F)CC1)c1cc2c(s1)-c1ccccc1OC2,active: 11%
2,CCCCSCCCNC(=O)C1CCC(CNS(=O)(=O)c2c(C)cc(C)cc2C)CC1 (configuration not stated),inactive: 76%
3,CCOc1ccc(CNC(=O)c2ccc3c(c2)nc2n3CCC(C)C2)cc1OC (configuration not stated),inactive: 73%
4,CCNc1nc(=S)nc(NCc2ccccc2)[nH]1,inactive: 57%
5,CC(=O)c1ccc(NC(=O)CCc2c(C)nn(-c3ccc(N4CCCCC4)nn3)c2C)cc1,inactive: 84%
6,Cc1csc2nc(CCNS(=O)(=O)c3ccc(F)cc3)cn12,inactive: 76%
7,COc1ccc(CNc2ncnc3c2cnn3-c2ccc(C)c(C)c2)cc1,inactive: 120%
8,O=C1C2CCc3[nH]c4ccccc4c3C2C(=O)N1Cc1ccccc1 (configuration not stated),inactive: 90%
9,NC(=O)N1CCCC1=O,inactive: 60%
10,CC1=C(C(=O)OC2CCCCCC2)C(c2cccc(Cl)c2)CC(=O)N1 (configuration not stated),inactive: 118%
11,CCCC1=Nc2cc(C(=O)N3CCC(C)CC3)ccc2Sc2ccc(C)cc21,inactive: 97%
12,Cc1ccc2c(=O)c(C(=O)c3cccc(Cl)c3)cn(CC(=O)Nc3ccccc3C(F)(F)F)c2n1,inactive: 73%
13,Cc1nc2scc(C)n2c(=O)c1S(=O)(=O)Nc1cccc(C(F)(F)F)c1,inactive: 83%
14,CCOc1ccc(-n2nc3ccc(NC(=O)c4ccc(-c5cccc(Cl)c5)o4)cc3n2)cc1,active: 45%
15,Cc1nc2cc(-c3ccccc3)sc2c(=O)n1N,inactive: 97%
16,CN1CCc2nc3sc(C(=O)Nc4ccccc4C(F)(F)F)c(N)c3cc2C1,inactive: 150%
17,COc1ccccc1Cc1nc2ccccc2nc1SCC(=O)NCc1ccccc1Cl,inactive: 135%
18,O=C(O)C1CCCN1C(=O)C12CC3CC(CC(C3)C1)C2 (configuration not stated),inactive: 74%
19,N=Nc1c(O)n(CC(=O)Nc2ccccc2)c2ccccc12,inactive: 87%
20,CCOC(=O)CC(=O)CSc1nc2ccccc2c(=O)n1CCc1ccc(S(N)(=O)=O)cc1,inactive: 76%
21,CC1CCCCN1CCCNC(=O)c1cc(Sc2ccc(Cl)cc2)nc2ccccc12 (configuration not stated),inactive: 94%
22,COc1ccc(-c2noc(-c3ccc(NCC4CCCO4)c([N+](=O)[O-])c3)n2)cc1OC (configuration not stated),inactive: 54%
23,COc1ccccc1CNC(=O)c1oc2ccc3c(c2c1C)C(=O)CC(C)(C)O3,inactive: 56%

row,SMILES,survival
1,CC(=O)Nc1ccc(NC(=O)CCS(=O)(=O)c2ccc3c(c2)CC(=O)N3C)cc1,inactive: 84%
2,CC(Oc1ccccc1)C(=O)N1CCCC1 (configuration not stated),inactive: 84%
3,CCn1nnc(NC(=O)c2ccccc2)n1,inactive: 86%
4,COc1ccccc1C(=O)OCc1cc(=O)n2nc(C(C)C)sc2n1,inactive: 83%
5,O=C1C(c2ccnc3ccccc23)=C(O)c2ccccc21,inactive: 84%
6,CCCCC1CCC(C(=O)N2CC(=O)Nc3ccc(Cl)cc3C2c2ccc(F)cc2)CC1 (configuration not stated),active: 40%
7,Cc1ccc(-n2c(=O)c3c4c(sc3n(CC(=O)Nc3ccccc3C)c2=O)CCCCC4)cc1C,inactive: 115%
8,Nc1nnc(CCN2C(=O)CSC2=O)s1,inactive: 95%
9,CCN(CC)c1ccc(-c2nc(-c3ccco3)no2)cc1[N+](=O)[O-],inactive: 47%
10,CCC(C)NC(=O)c1sc2nc(C)c(C(=O)Nc3ccc(C)cc3C)c(-c3ccccc3Cl)c2c1N (configuration not stated),inactive: 67%
11,Nc1ccc2nc(CCc3ccccc3)[nH]c2c1,inactive: 76%
12,COc1ccc(NC(=O)c2cnc(N3CCCCC3)c3ccccc23)cc1Cl,inactive: 78%
13,Cc1ccc(C)c(CNC(=O)c2cc3ccccn3n2)c1,inactive: 67%
14,COc1ccc(NC(=O)Cn2cc(S(=O)(=O)Cc3ccc(F)cc3)c3ccccc32)cc1OC,inactive: 71%
15,CCOC(=O)C1CCC(CN(Cc2cccc(Br)c2)S(=O)(=O)c2ccc(Cl)cc2)CC1 (configuration not stated),inactive: 91%
16,C/C(=N\NC(=O)Cc1ccc(Cl)cc1)c1ccccc1O,inactive: 82%
17,CCOC(=O)N1CCc2c(sc3c2C(=O)NC(c2ccccc2F)N3)C1 (configuration not stated),inactive: 62%
18,COc1ccc(N2CC(NC(=O)COc3ccc4ccccc4c3)CC2=O)cc1OC (configuration not stated),inactive: 80%
19,CCN1C(=O)C(Cc2nc3ccccc3c(=O)n2-c2ccc(OC)cc2)c2ccccc21 (configuration not stated),inactive: 70%
20,CC1Cc2cc(S(=O)(=O)NCc3ccc(N(C)C)cc3)ccc2N1C(=O)C1CCC1 (configuration not stated),inactive: 90%
21,O=C(Nc1ccc(Cl)cc1)N1CCC(c2ccccc2)C1 (configuration not stated),inactive: 67%
22,COc1ccc(C(=O)/C=C\Nc2ccc(S(=O)(=O)N=C(N)N)cc2)cc1OC,inactive: 76%
23,c1ccc2c(c1)CC(N1CCCCC1)c1ccccc1N2 (configuration not stated),inactive: 101%
